# Measurements: PubChem BioAssay AID1645886 (National Center for Advancing Translational Sciences (NCATS), 2021)
# “And” between values parts separate entries of the source, which are not always exact repeats. Identical values can stand only once. Among all 16,000 compounds or so, about 260 (1.6%) were called active. The inconclusive results got no clear call from the source; some entries with a clear call stand among them for comparison. Calls come from the whole dose curve; as a rule, active = well fitted inhibition curve with a large enough effect; inconclusive = small, poorly fitted or top-dose-only effect; inactive = no such curve, though single readings can be large or run the other way. Potencies of inconclusive entries are doubtful fits and often do not repeat. Where a structure was tested more than once in an assay, its records may differ in their call.
# Target: Rap guanine nucleotide exchange factor 4 (Homo sapiens) (UniProt Q8WZA2)
# Chain of UniProt Q8WZA2 (Q8WZA2 whole entry, looked up): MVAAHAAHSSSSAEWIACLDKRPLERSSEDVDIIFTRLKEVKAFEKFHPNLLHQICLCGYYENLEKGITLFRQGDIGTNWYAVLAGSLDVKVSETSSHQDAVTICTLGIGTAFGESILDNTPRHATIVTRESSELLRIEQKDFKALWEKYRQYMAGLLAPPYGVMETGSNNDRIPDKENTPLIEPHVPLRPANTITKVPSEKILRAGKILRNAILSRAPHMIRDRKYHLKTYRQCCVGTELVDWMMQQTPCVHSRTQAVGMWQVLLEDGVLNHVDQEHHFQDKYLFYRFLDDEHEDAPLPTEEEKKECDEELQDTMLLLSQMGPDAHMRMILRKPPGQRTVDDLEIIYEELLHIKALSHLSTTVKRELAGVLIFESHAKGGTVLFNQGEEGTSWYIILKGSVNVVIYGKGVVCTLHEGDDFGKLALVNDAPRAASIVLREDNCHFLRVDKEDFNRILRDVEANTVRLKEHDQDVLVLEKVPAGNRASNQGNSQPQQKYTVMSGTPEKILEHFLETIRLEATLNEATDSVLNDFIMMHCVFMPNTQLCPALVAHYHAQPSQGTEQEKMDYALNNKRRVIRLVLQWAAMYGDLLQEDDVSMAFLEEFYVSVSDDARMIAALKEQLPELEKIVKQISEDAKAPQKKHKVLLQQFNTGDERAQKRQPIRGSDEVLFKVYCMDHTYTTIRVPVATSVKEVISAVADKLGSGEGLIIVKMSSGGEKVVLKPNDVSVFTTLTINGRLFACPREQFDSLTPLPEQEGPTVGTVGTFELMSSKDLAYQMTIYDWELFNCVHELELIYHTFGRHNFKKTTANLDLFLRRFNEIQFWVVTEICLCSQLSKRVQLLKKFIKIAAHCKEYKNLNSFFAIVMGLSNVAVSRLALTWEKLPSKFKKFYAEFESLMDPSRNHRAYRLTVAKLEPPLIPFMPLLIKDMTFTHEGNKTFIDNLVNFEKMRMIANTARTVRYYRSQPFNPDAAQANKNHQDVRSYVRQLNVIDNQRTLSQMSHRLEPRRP
# Experiment: Validation qHTS for antagonist of cAMP-regulated guanine nucleotide exchange factor 4 (EPAC2); note: nearly all actives have a fitted effect of over 40% in size
# Details: EPAC2 Rap1B BODIPY-GDP exchange, fluorescence; series mostly up to 112 µM
# Method in brief: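 Fluorescent exchange read-out: 100 nM EPAC2 with 250 nM RAP1B–BODIPY-GDP and 50 uM GDP; BODIPY-GDP release lowers fluorescence. Read at 480/540 nm every 5 min for 30 min at room temperature; normalized to 6.5 mM cAMP.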
# Potency is the fitted concentration of half-maximal effect; tags give direction and shape of the fitted curve.
row,Structure (SMILES),Potency
1,COc1cc(-c2cc(=O)c3ccccc3o2)ccc1O,"inconclusive: 89.1 µM [inhibitor, partial curve]"
2,O=C(CCn1cncn1)NCC1Cc2cc(-c3ccsc3)cc(Cl)c2O1 (centres undefined),inactive
3,COc1cccc(Cn2c(=O)c(C)nc3cnc(Oc4cccc(Cl)c4)nc32)c1,"inconclusive: 2.51 µM [inhibitor, full curve]"
4,COc1ccc(Oc2ncc3ncc(=O)n(Cc4cccs4)c3n2)cc1,"inconclusive: 56.2 µM [inhibitor, partial curve, poor fit]"
5,Cc1ncc2c(c1CNC(=O)c1ccccc1F)CCN(C(=O)c1ccc3c(c1)OCCO3)C2,"inconclusive: 89.1 µM [inhibitor, single point]"
6,CCOC(=O)c1c(C)cc(OC)cc1O,"inconclusive: 14.1 µM [inhibitor, full curve]"
7,COc1cc2c(cc1OC)C(C(C(=O)N(CCc1ccc(OC)c(OC)c1OC)CCc1ccc(OC)c(OC)c1OC)c1ccccc1)=NCC2 (centres undefined),"inconclusive: 50.1 µM [inhibitor, partial curve, poor fit]"
8,C=C[C@@](C)(O)CC[C@@H]1[C@@]2(C)CCCC(C)(C)[C@@H]2CC[C@@]1(C)O,"inconclusive: 50.1 µM [inhibitor, partial curve]"
9,CC(=O)Nc1ccc(OC(=O)c2ccccc2O)cc1,"inconclusive: 35.5 µM [inhibitor, partial curve, poor fit]"
10,COc1cc2nc(N3CCN(C(=O)C4COc5ccccc5O4)CC3)nc(N)c2cc1OC (centres undefined),"inconclusive: 39.8 µM [inhibitor, partial curve, poor fit]"
11,O=c1c(O)c(-c2ccc(O)cc2)oc2cc(O)cc(O)c12,"inconclusive: 100 µM [inhibitor, single point]"
12,C(=C\c1nccc2ccccc12)/c1ccc(N2CCOCC2)cc1,inactive
13,COc1ccc(CN2CCOc3c(cc(-c4ccc(OC)nn4)cc3OC)C2)c(O)c1,"inconclusive: 20 µM [inhibitor, partial curve, poor fit]"
14,C=C[C@]1(C)C[C@@H](OC(=O)CSC(C)(C)CNC(=O)[C@H](N)C(C)C)[C@]2(C)[C@H](C)CC[C@]3(CCC(=O)[C@H]32)[C@@H](C)[C@@H]1O,inactive
15,COC(=O)N1CCC2(CCN(Cc3cc(C(F)(F)F)cc(C(F)(F)F)c3)CC2)CC1,"inconclusive: 1.41 µM [inhibitor, full curve, poor fit]"
16,CC(=O)O[C@@]1(C(C)=O)CCC2C3C=C(Cl)C4=CC(=O)C5CC5[C@@]4(C)C3CC[C@]21C (some centres undefined),"inconclusive: 89.1 µM [inhibitor, partial curve, poor fit]"
17,CN(C)c1ncnc2ccc(-c3ccccc3C(F)(F)F)cc12,"inconclusive: 31.6 µM [inhibitor, partial curve]"
18,CCCCCCOc1ccccc1C(N)=O,"inconclusive: 4.47 µM [inhibitor, partial curve, poor fit]"
19,COc1ccc(-c2coc3c(OC)c(OC)cc(OC)c3c2=O)cc1,"inconclusive: 56.2 µM [inhibitor, partial curve, poor fit]"
20,c1ccc2c(c1)CC(N1CCN(c3cccc4c3OCCO4)CC1)C2,"inconclusive: 17.8 µM [inhibitor, single point]"

row,Structure (SMILES),Potency
1,COc1ccc(-c2c(-c3ccc4c(c3)OCO4)noc2-c2ccsc2)cn1,"inconclusive: 50.1 µM [inhibitor, partial curve, poor fit]"
2,CN(C)C(=O)CCSC(SCCC(=O)O)c1cccc(/C=C/c2ccc3ccc(Cl)cc3n2)c1 (centres undefined),"inconclusive: 56.2 µM [inhibitor, partial curve, poor fit]"
3,Cc1csc(SCC(=O)NCC2Cc3cc(-c4cncnc4)ccc3O2)n1 (centres undefined),"inconclusive: 79.4 µM [inhibitor, single point]"
4,COc1ccc(O)c(CN2CCC3(CCC(CNC(=O)C4CCCO4)O3)CC2)c1 (centres undefined),inactive
5,Cc1c(C(=O)NCC2CCCN(C)C2)cnn1-c1nccc(-c2ccco2)n1 (centres undefined),"inconclusive: 63.1 µM [inhibitor, single point]"
6,CC(C)C[C@@H](CO)N1CCN(C)CCC1=O,"inconclusive: 79.4 µM [inhibitor, partial curve]"
7,Cc1ccc(-c2cc(C(F)(F)F)nn2-c2ccc(S(N)(=O)=O)cc2)cc1,"inconclusive: 35.5 µM [inhibitor, partial curve, poor fit] and inconclusive: 50.1 µM [inhibitor, partial curve]"
8,COC(=O)c1c(OC)cc2c(c1C)Oc1c(Cl)c(O)c(Cl)c(C)c1C(=O)O2,active: 4.47 µM
9,COc1cc(CNC(=O)CCCC/C=C/C(C)C)ccc1O,"inconclusive: 39.8 µM [inhibitor, partial curve, poor fit] and inconclusive: 1.12 µM [inhibitor, full curve]"
10,O=C1CC[C@@H](O)CCN1CC[C@H](Sc1ccc(Br)cc1)c1ccccc1,"inconclusive: 10 µM [inhibitor, partial curve, poor fit]"
11,O=C(NCc1nnc2n1CCN(Cc1cc3c(cc1Cl)OCO3)CC2)c1cccc(F)c1,inactive
12,CN(C)c1ccc(-c2cncnc2NCc2ccccc2)cc1,"inconclusive: 56.2 µM [inhibitor, partial curve, poor fit]"
13,COc1ccc2c(c1)OC(C)CN(CC(=O)NCc1cn[nH]c1-c1ccc(F)cc1)C2 (centres undefined),"inconclusive: 39.8 µM [inhibitor, single point]"
14,Cc1ccccc1N=Nc1ccc(N=Nc2c(O)ccc3ccccc23)c(C)c1,inactive
15,COc1cc(-c2noc(C)c2C#Cc2ccc(N)cc2)cc(OC)c1OC,"inconclusive: 89.1 µM [inhibitor, partial curve, poor fit]"
16,Cc1ccccc1CN1[C@@H]2c3ccccc3C[C@@H]2OCCS1(=O)=O,"inconclusive: 20 µM [inhibitor, full curve]"
17,OC/C=C/c1ccccc1,"inconclusive: 100 µM [inhibitor, single point]"
18,CN(C)C(=O)c1ccc(-c2ccc3ncnc(NCc4cccs4)c3c2)cc1,"inconclusive: 56.2 µM [inhibitor, partial curve, poor fit]"
19,N#C/C(=C1/SC[C@@H](c2ccc(Cl)cc2Cl)S1)n1ccnc1,"inconclusive: 44.7 µM [inhibitor, partial curve] and inconclusive: 39.8 µM [inhibitor, full curve]"
20,O=C(Oc1ccccc1)N1CCC2(CC1)CN(c1ccccc1)C2,"inconclusive: 0.251 µM [inhibitor, full curve, poor fit]"

row,Structure (SMILES),Potency
1,CC(C)(C)CC(C)(C)N=C1Nc2ccc(Cl)cc2N[C@]12C[C@H]1CCCC(=O)N3CC[C@@H](C2)[C@@H]13,"inconclusive: 39.8 µM [inhibitor, partial curve, poor fit]"
2,O=[N+]([O-])c1c(Cl)cccc1-c1c[nH]cc1Cl,"inconclusive: 56.2 µM [inhibitor, partial curve, poor fit]"
3,CC(C)C1=CC2=CC[C@@H]3[C@](C)(CO)CCC[C@]3(C)C2CC1 (some centres undefined),"inconclusive: 44.7 µM [inhibitor, partial curve, poor fit]"
4,C#CCN(Cc1ccc(OC)cc1)S(=O)(=O)C=C,"inconclusive: 50.1 µM [inhibitor, partial curve]"
5,O=C(c1ccncc1)N1CCC2(CC1)CCN(c1ccc(-c3ccccc3)cc1)CC2,inactive
6,OCCN1CCN(Cc2ccc3c(c2)CN(Cc2cc4ccccc4o2)CCO3)CC1,inactive
7,COC(=O)C1N[C@@H]([C@@H](NC(=O)COc2ccccc2)C(=O)NC2CC2)SC1(C)C (some centres undefined),"inconclusive: 39.8 µM [inhibitor, single point]"
8,Cc1ccc(SCCN2CCC(NC(=O)OCc3ccccc3)CCC2=O)cc1 (centres undefined),"inconclusive: 79.4 µM [inhibitor, partial curve, poor fit]"
9,CC(=O)Nc1ccc(SC[C@H](Cc2ccccc2)N2CC[C@@H](C(C)(C)C)CCC2=O)cc1,"inconclusive: 39.8 µM [inhibitor, partial curve, poor fit]"
10,COc1ccc(SC[C@H](Cc2ccccc2)N2CC[C@@H](NC(=O)OCc3ccccc3)CCC2=O)cc1,"inconclusive: 56.2 µM [inhibitor, partial curve, poor fit]"
11,c1ccc2cc(C3=NCCN3)ccc2c1,inactive
12,CCCCC(CC)COC(=O)CC(C(=O)OCC(CC)CCCC)S(=O)(=O)O (centres undefined),"inconclusive: 50.1 µM [inhibitor, partial curve, poor fit]"
13,CCCCCCC[n+]1ccc(/C=C/c2c(C)[nH]c3ccccc23)c2ccccc21,"inconclusive: 79.4 µM [inhibitor, partial curve, poor fit]"
14,Cc1ccc(S(=O)(=O)NCc2ccccc2)cc1,"inconclusive: 50.1 µM [inhibitor, partial curve]"
15,COC(=O)C1=C(C)NC(C)=C(C(=O)OC(C)(C)CN(C)CCC(c2ccccc2)c2ccccc2)C1c1cccc([N+](=O)[O-])c1 (centres undefined),inactive
16,Cc1ccnc2ncccc12,inactive
17,Cc1cccc(CN2Cc3cccc4c3[C@H](C=CC4)CC2=S)c1,"inconclusive: 56.2 µM [inhibitor, partial curve, poor fit]"
18,CC1=NS(=O)(=O)c2cc(Cl)ccc2N1,"inconclusive: 79.4 µM [inhibitor, single point]"
19,COc1ccc(OC)c(-c2cc(Cl)c3c(c2)CC(CNC(=O)c2cccnc2SC)O3)c1 (centres undefined),inactive
